From the supplement of paper PMC3334620
Over roughly 33,000 sequences, “E-score (-0.5 to 0.5)” has its median near -0.053; the highest 2% begin near 0.37. This is one part of the list.

Biological target: Hap1 (UniProt P0CE41)
Test: PBM E-score (8-mer binding enrichment) (E-score (-0.5 to 0.5)); higher = stronger / more preferred TF binding; most listed sequences are background and not binding sites
Conditions: protein concentration: 200 nM; construct: GST-DNA-binding domain
Procedure, shortened: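 The E-score, a modified Wilcoxon-Mann-Whitney statistic, was computed by the Universal PBM Analysis Suite for every ungapped eight-base word pooled with its reverse complement. Scans behind it were normalised with masliner after bound GST-tagged yeast transcription factors were detected with fluorescent anti-GST. The proteins, at about 100-200 nM, had been applied to universal all-10-mer Agilent arrays made double-stranded by primer extension.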

Sequence of UniProt P0CE41 (P0CE41 whole entry): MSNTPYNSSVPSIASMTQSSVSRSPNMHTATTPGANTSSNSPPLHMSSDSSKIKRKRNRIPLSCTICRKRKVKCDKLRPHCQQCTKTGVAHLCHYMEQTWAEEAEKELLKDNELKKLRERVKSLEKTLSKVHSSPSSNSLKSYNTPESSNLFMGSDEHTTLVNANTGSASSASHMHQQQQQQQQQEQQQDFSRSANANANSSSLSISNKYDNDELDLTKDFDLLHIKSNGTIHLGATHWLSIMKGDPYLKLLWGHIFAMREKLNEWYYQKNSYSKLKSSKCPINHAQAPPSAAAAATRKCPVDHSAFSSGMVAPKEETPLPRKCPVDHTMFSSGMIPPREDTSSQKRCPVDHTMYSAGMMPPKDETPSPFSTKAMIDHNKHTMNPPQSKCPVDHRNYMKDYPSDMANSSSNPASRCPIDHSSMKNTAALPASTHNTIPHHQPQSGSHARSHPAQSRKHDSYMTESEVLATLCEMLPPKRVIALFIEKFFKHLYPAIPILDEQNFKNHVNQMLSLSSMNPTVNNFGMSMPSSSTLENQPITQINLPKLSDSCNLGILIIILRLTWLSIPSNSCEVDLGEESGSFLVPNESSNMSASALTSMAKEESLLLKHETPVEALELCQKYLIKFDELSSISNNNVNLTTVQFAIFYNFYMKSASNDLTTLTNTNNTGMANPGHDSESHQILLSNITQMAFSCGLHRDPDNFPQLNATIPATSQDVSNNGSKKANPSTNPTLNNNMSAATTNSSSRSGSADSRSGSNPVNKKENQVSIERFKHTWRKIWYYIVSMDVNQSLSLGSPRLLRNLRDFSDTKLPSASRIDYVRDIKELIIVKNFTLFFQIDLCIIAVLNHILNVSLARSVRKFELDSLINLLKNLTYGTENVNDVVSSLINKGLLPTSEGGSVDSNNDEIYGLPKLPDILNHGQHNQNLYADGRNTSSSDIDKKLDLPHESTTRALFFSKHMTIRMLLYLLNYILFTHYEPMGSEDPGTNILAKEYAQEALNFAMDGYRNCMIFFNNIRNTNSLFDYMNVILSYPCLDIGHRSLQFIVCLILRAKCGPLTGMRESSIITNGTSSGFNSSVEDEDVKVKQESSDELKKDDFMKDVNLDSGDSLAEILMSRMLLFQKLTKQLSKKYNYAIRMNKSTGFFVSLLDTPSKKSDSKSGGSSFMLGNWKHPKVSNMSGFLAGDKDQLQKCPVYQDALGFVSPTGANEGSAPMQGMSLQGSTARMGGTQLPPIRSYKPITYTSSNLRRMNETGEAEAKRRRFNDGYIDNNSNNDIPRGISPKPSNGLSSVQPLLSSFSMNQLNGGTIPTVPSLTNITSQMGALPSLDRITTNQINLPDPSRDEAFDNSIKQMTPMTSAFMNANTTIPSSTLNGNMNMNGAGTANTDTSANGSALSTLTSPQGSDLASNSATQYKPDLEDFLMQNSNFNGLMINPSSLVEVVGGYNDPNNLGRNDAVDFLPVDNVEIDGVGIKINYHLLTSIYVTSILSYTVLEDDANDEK

Sequence | PBM E-score
ACAACTTA | -0.138
AGACAGGG | -0.182
GTCCGTTA | 0.444
AAAATACA | -0.209
CGAATAGC | -0.0379
GAAGGGCA | -0.162
CAGTCACC | -0.103
GTCATGCA | -0.193
CCCCCACG | -0.118
ACATCGGA | 0.265
AGCCTGTG | -0.238
ATCTCTAC | -0.223
CACTGCCG | 0.276
GACTTTAA | 0.0403
AAATTAAG | -0.109
CTATAACC | 0.0469
CCATGCGG | 0.00787
AGTTATTA | 0.00662
CTTCCTGC | -0.296
CAGTGCTA | -0.108
GTATAGGA | -0.289
GCCCCAGC | -0.105
AAGTTCCC | 0.149
AGGACTTG | -0.144
GCGAAGGA | -0.0352

Sequence | PBM E-score
AAAGTCTA | -0.104
ATTCCACA | 0.0968
GAGAACAA | 0.0624
ACTGACGC | -0.244
CCCATCAA | -0.152
TGCTGCCA | -0.167
CACCTTCC | -0.0486
ACGGCCCA | 0.141
CAGTCTAG | -0.259
AGTTTCCG | 0.39
ATTGGGCA | -0.0872
CTAGGTCA | -0.288
ATCGCTGG | 0.0577
ACGTAGAA | -0.0299
ATCATCTC | 0.00897
TGAATCAA | 0.00778
GTTCAACA | -0.0733
AAACACCA | -0.13
CACTGCAA | -0.13
CCATAAGG | -0.397
AATCGGCG | 0.307
TAAGGTCA | -0.193
ACGTCGCT | -0.0288
GGTTCCAC | 0.0307
CGCCCGGA | 0.4

Sequence | PBM E-score
ACACACAA | -0.295
CGAGCGCC | 0.195
CCGGTTCG | 0.303
AGCTGAGG | -0.214
CGAGGACC | 0.145
ACCCCTAA | -0.0223
ACAAAGGT | -0.15
ACAAACGT | -0.257
CCAACCGA | 0.138
AGGCCCCA | -0.117
GATGCAGA | -0.231
CTAACGAG | -0.0333
CCTGAACG | 0.0789
GGATCCTA | 0.0327
AGCTTTAT | -0.118
GACATTGA | 0.0583
AAATAGCA | -0.175
CTCGCGGA | 0.22
CCATCCAG | -0.274
ATTTCCAA | 0.0623
AGCTCACA | -0.29
CACTAGAC | -0.0552
ATAGTGCA | -0.0364
ACTGCTAA | -0.133
ACGAGCGT | -0.22

Sequence | PBM E-score
CGTCTGGA | -0.156
AGCCATGC | -0.107
AGATGGGG | -0.242
AACTTAGA | -0.127
AGGAAGTG | -0.091
GTACGTGA | -0.142
ATGAAATG | -0.0309
GGCTGAAC | 0.128
GCGTCTTA | -0.0632
CCGACACC | 0.23
ACGACGTA | -0.186
ATACGGTG | 0.0257
AACTACCT | 0.00606
GCGCAACA | -0.0625
CCGGTAAC | 0.36
ACGATGCC | -0.0974
ATCAACAA | -0.207
CTAAAGCC | 0.219
ATAAGTTG | -0.016
ACTTGACG | -0.305
ACCCTCTG | -0.199
CTTTGCGA | 0.11
AAGGCCTA | -0.155
CGTGTTAG | -0.00291
GCATGTTA | 0.109

Sequence | PBM E-score
GAAAGGTC | 0.118
CGCGCTTA | 0.209
CATTTACA | -0.16
CTAGTTTA | -0.145
AGGACGAG | -0.282
ACTCATAT | -0.12
AAAGTGGA | -0.0321
AATTGTGT | -0.192
GAGAGGCC | -0.0919
GGTTGATA | 0.0382
TAGACAAA | -0.209
CCAGGCCA | -0.211
AATGTTCG | 0.122
ATACTTTA | -0.0891
ATCTCTAG | -0.16
CCGTCCCC | 0.144
CTGCATAC | -0.0402
CGGTACCC | 0.0267
AACTGGCA | -0.0421
CCGCATGC | 0.0869
CCCAGCAG | -0.0279
AACTCAAT | -0.0596
AACAATGG | -0.166
GCGAATAC | 0.118
ACTATACT | -0.122

Sequence | PBM E-score
TTCCCCAA | -0.128
CAAGTTAA | -0.207
CTGTTCAA | -0.227
CACGCTTC | -0.0806
CCCATTTC | 0.0399
GTGCGCTA | -0.163
AAATAGCT | -0.135
AAACGACT | -0.132
CTATCATA | -0.0975
CAGCATCA | -0.202
GCCATTTA | -0.126
TATTTTGA | -0.125
CAAAGGCA | -0.213
TCGTCCAA | -0.104
ATGGGAAT | -0.152
GCATGCCA | -0.2
ACGCGATA | 0.124
CAGTTGGC | -0.114
GGCCATTA | 0.075
CGTGTACC | 0.11
CACATACG | -0.17
AATATCGG | 0.443
GTTGCCAA | -0.147
CGGTCTGA | 0.205
AATCGCAG | -0.193

Sequence | PBM E-score
ATTCTGGA | -0.106
CGAGGAAC | 0.205
AGAAATGC | -0.00665
ACTATTAA | -0.148
ATTAGTCA | 0.0699
AAGCAGCA | -0.149
GTGCCCCA | -0.204
AATTTCTA | -0.0789
AAACCCGG | 0.454
TCAGACAA | -0.223
CAGATAAA | 0.0431
GGGCGATA | 0.179
AATGGAGT | -0.165
ACCTAGCT | -0.246
ATGTCCTG | 0.00518
AAAATCAT | -0.202
ATTGGATG | -0.112
AGGTCTTC | -0.313
GATCTTTA | -0.02
GACCACCA | -0.0307
AACGTTAC | -0.017
AACTATAC | -0.0775
